± gives the standard deviation of the averaged measurements. Restriction of a single-cycle SIVsab GFP reporter by TRIM5α v1-loop variants in CRFK cells. Human variants: read share among cells still uninfected after two challenges over input, higher = gained restriction. Rhesus variants: share among infected cells over input, higher = lost restriction. Reporter dose not given per row. No active / inactive call per row; the paper calls a change when both replicates lie above its controls (mean + 2 SD of stop or wild-type variants, or the top frameshift score). Residues outside the varied loop are taken from Swiss-Prot. The paper reads the human single-substitution scores as noise; they and the rhesus combinations repeat poorly (rank correlation 0.3 to 0.4), indel scores repeat only for the top variants, rhesus substitutions well (0.9).

This series concerns SIVsab (simian immunodeficiency virus of sabaeus monkeys), single-cycle GFP reporter, in CRFK cells. Briefly: enrichment among infected cells over input (fold); higher = weaker restriction. As to conditions: library: human / rhesus combinations. How it is done: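 Pools of CRFK cells expressing variants of the TRIM5α v1 loop were challenged with the single-cycle reporter, sorted by GFP and sequenced; mean of two replicates.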
Consider “MASGILLNVKEEVTCPICLELLTEPLSLHCGHSFCQACITANHKKSMLYKEGERSCPVCRISYQPENIQPNRHVANIVEKLREVKLSPEEGQKVDHCARHGEKLLLFCQEDSKVICWLCERSQEHRGHHTFLMEEVAQEYHVKLQTALEMLRQKQQEAEKLEADIREEKASWKIQIDYDKTNVSADFEQLREILDWEESNELQNLEKEEEDILKSLTKSETEMVQQTQYMRELISELEHRLQGSMMDLLQGVDGIIKRIENMTLKKPKTFHKNQRRVFRAPDLKGMLDMFRELTDARRYWVDVTLAPNNISHAVIAEDKRQVSSRNPQIMYGARGTLFQSFTNFNYCTGVLGSQSITSGKHYWEVDVSKKSAWILGVCAGFQSDAMYNIEQNENYQPKYGYWVIGLQEGVKYSVFQDGSSHTPFAPFIVPLSVIICPDRVGVFVDYEACTVSFFNITNHGFLIYKFSQCSFSKPVFPYLNPRKCTVPMTLCSPSS [rhesus TRIM5α, 332-344 = GARGTLFQSFT]”, for which the enrichment was found to be 2.63 ± 2.4.
For the sequence “MASGILLNVKEEVTCPICLELLTEPLSLHCGHSFCQACITANHKKSMLYKEGERSCPVCRISYQPENIQPNRHVANIVEKLREVKLSPEEGQKVDHCARHGEKLLLFCQEDSKVICWLCERSQEHRGHHTFLMEEVAQEYHVKLQTALEMLRQKQQEAEKLEADIREEKASWKIQIDYDKTNVSADFEQLREILDWEESNELQNLEKEEEDILKSLTKSETEMVQQTQYMRELISELEHRLQGSMMDLLQGVDGIIKRIENMTLKKPKTFHKNQRRVFRAPDLKGMLDMFRELTDARRYWVDVTLAPNNISHAVIAEDKRQVSSRNPQIMYGARGTLFQSLTNFNYCTGVLGSQSITSGKHYWEVDVSKKSAWILGVCAGFQSDAMYNIEQNENYQPKYGYWVIGLQEGVKYSVFQDGSSHTPFAPFIVPLSVIICPDRVGVFVDYEACTVSFFNITNHGFLIYKFSQCSFSKPVFPYLNPRKCTVPMTLCSPSS [rhesus TRIM5α, 332-344 = GARGTLFQSLT]”, the enrichment is 0.626 ± 0.88.
Then “MASGILLNVKEEVTCPICLELLTEPLSLHCGHSFCQACITANHKKSMLYKEGERSCPVCRISYQPENIQPNRHVANIVEKLREVKLSPEEGQKVDHCARHGEKLLLFCQEDSKVICWLCERSQEHRGHHTFLMEEVAQEYHVKLQTALEMLRQKQQEAEKLEADIREEKASWKIQIDYDKTNVSADFEQLREILDWEESNELQNLEKEEEDILKSLTKSETEMVQQTQYMRELISELEHRLQGSMMDLLQGVDGIIKRIENMTLKKPKTFHKNQRRVFRAPDLKGMLDMFRELTDARRYWVDVTLAPNNISHAVIAEDKRQVSSRNPQIMYGARGTLFQTFVNFNYCTGVLGSQSITSGKHYWEVDVSKKSAWILGVCAGFQSDAMYNIEQNENYQPKYGYWVIGLQEGVKYSVFQDGSSHTPFAPFIVPLSVIICPDRVGVFVDYEACTVSFFNITNHGFLIYKFSQCSFSKPVFPYLNPRKCTVPMTLCSPSS [rhesus TRIM5α, 332-344 = GARGTLFQTFV]”, with 0.572 ± 0.63.
Then “MASGILLNVKEEVTCPICLELLTEPLSLHCGHSFCQACITANHKKSMLYKEGERSCPVCRISYQPENIQPNRHVANIVEKLREVKLSPEEGQKVDHCARHGEKLLLFCQEDSKVICWLCERSQEHRGHHTFLMEEVAQEYHVKLQTALEMLRQKQQEAEKLEADIREEKASWKIQIDYDKTNVSADFEQLREILDWEESNELQNLEKEEEDILKSLTKSETEMVQQTQYMRELISELEHRLQGSMMDLLQGVDGIIKRIENMTLKKPKTFHKNQRRVFRAPDLKGMLDMFRELTDARRYWVDVTLAPNNISHAVIAEDKRQVSSRNPQIMYGARGTLFQTLTNFNYCTGVLGSQSITSGKHYWEVDVSKKSAWILGVCAGFQSDAMYNIEQNENYQPKYGYWVIGLQEGVKYSVFQDGSSHTPFAPFIVPLSVIICPDRVGVFVDYEACTVSFFNITNHGFLIYKFSQCSFSKPVFPYLNPRKCTVPMTLCSPSS [rhesus TRIM5α, 332-344 = GARGTLFQTLT]”, with 0.478 ± 0.23; and “MASGILLNVKEEVTCPICLELLTEPLSLHCGHSFCQACITANHKKSMLYKEGERSCPVCRISYQPENIQPNRHVANIVEKLREVKLSPEEGQKVDHCARHGEKLLLFCQEDSKVICWLCERSQEHRGHHTFLMEEVAQEYHVKLQTALEMLRQKQQEAEKLEADIREEKASWKIQIDYDKTNVSADFEQLREILDWEESNELQNLEKEEEDILKSLTKSETEMVQQTQYMRELISELEHRLQGSMMDLLQGVDGIIKRIENMTLKKPKTFHKNQRRVFRAPDLKGMLDMFRELTDARRYWVDVTLAPNNISHAVIAEDKRQVSSRNPQIMYGARGTLFTFPSFTNFNYCTGVLGSQSITSGKHYWEVDVSKKSAWILGVCAGFQSDAMYNIEQNENYQPKYGYWVIGLQEGVKYSVFQDGSSHTPFAPFIVPLSVIICPDRVGVFVDYEACTVSFFNITNHGFLIYKFSQCSFSKPVFPYLNPRKCTVPMTLCSPSS [rhesus TRIM5α, 332-344 = GARGTLFTFPSFT]”, with 0.048 ± 0.036; and “MASGILLNVKEEVTCPICLELLTEPLSLHCGHSFCQACITANHKKSMLYKEGERSCPVCRISYQPENIQPNRHVANIVEKLREVKLSPEEGQKVDHCARHGEKLLLFCQEDSKVICWLCERSQEHRGHHTFLMEEVAQEYHVKLQTALEMLRQKQQEAEKLEADIREEKASWKIQIDYDKTNVSADFEQLREILDWEESNELQNLEKEEEDILKSLTKSETEMVQQTQYMRELISELEHRLQGSMMDLLQGVDGIIKRIENMTLKKPKTFHKNQRRVFRAPDLKGMLDMFRELTDARRYWVDVTLAPNNISHAVIAEDKRQVSSRNPQIMYGARGTLFTFPSFVNFNYCTGVLGSQSITSGKHYWEVDVSKKSAWILGVCAGFQSDAMYNIEQNENYQPKYGYWVIGLQEGVKYSVFQDGSSHTPFAPFIVPLSVIICPDRVGVFVDYEACTVSFFNITNHGFLIYKFSQCSFSKPVFPYLNPRKCTVPMTLCSPSS [rhesus TRIM5α, 332-344 = GARGTLFTFPSFV]”, with 0.031 ± 0.014.
The figure for “MASGILLNVKEEVTCPICLELLTEPLSLHCGHSFCQACITANHKKSMLYKEGERSCPVCRISYQPENIQPNRHVANIVEKLREVKLSPEEGQKVDHCARHGEKLLLFCQEDSKVICWLCERSQEHRGHHTFLMEEVAQEYHVKLQTALEMLRQKQQEAEKLEADIREEKASWKIQIDYDKTNVSADFEQLREILDWEESNELQNLEKEEEDILKSLTKSETEMVQQTQYMRELISELEHRLQGSMMDLLQGVDGIIKRIENMTLKKPKTFHKNQRRVFRAPDLKGMLDMFRELTDARRYWVDVTLAPNNISHAVIAEDKRQVSSRNPQIMYGARGTLFTFPSLVNFNYCTGVLGSQSITSGKHYWEVDVSKKSAWILGVCAGFQSDAMYNIEQNENYQPKYGYWVIGLQEGVKYSVFQDGSSHTPFAPFIVPLSVIICPDRVGVFVDYEACTVSFFNITNHGFLIYKFSQCSFSKPVFPYLNPRKCTVPMTLCSPSS [rhesus TRIM5α, 332-344 = GARGTLFTFPSLV]” is 0.2139 ± 0.00084; for “MASGILLNVKEEVTCPICLELLTEPLSLHCGHSFCQACITANHKKSMLYKEGERSCPVCRISYQPENIQPNRHVANIVEKLREVKLSPEEGQKVDHCARHGEKLLLFCQEDSKVICWLCERSQEHRGHHTFLMEEVAQEYHVKLQTALEMLRQKQQEAEKLEADIREEKASWKIQIDYDKTNVSADFEQLREILDWEESNELQNLEKEEEDILKSLTKSETEMVQQTQYMRELISELEHRLQGSMMDLLQGVDGIIKRIENMTLKKPKTFHKNQRRVFRAPDLKGMLDMFRELTDARRYWVDVTLAPNNISHAVIAEDKRQVSSRNPQIMYGARGTLFTFPTFTNFNYCTGVLGSQSITSGKHYWEVDVSKKSAWILGVCAGFQSDAMYNIEQNENYQPKYGYWVIGLQEGVKYSVFQDGSSHTPFAPFIVPLSVIICPDRVGVFVDYEACTVSFFNITNHGFLIYKFSQCSFSKPVFPYLNPRKCTVPMTLCSPSS [rhesus TRIM5α, 332-344 = GARGTLFTFPTFT]” it is 0.341 ± 0.087; for “MASGILLNVKEEVTCPICLELLTEPLSLHCGHSFCQACITANHKKSMLYKEGERSCPVCRISYQPENIQPNRHVANIVEKLREVKLSPEEGQKVDHCARHGEKLLLFCQEDSKVICWLCERSQEHRGHHTFLMEEVAQEYHVKLQTALEMLRQKQQEAEKLEADIREEKASWKIQIDYDKTNVSADFEQLREILDWEESNELQNLEKEEEDILKSLTKSETEMVQQTQYMRELISELEHRLQGSMMDLLQGVDGIIKRIENMTLKKPKTFHKNQRRVFRAPDLKGMLDMFRELTDARRYWVDVTLAPNNISHAVIAEDKRQVSSRNPQIMYGARGTLFTFPTFVNFNYCTGVLGSQSITSGKHYWEVDVSKKSAWILGVCAGFQSDAMYNIEQNENYQPKYGYWVIGLQEGVKYSVFQDGSSHTPFAPFIVPLSVIICPDRVGVFVDYEACTVSFFNITNHGFLIYKFSQCSFSKPVFPYLNPRKCTVPMTLCSPSS [rhesus TRIM5α, 332-344 = GARGTLFTFPTFV]” it is 0.446 ± 0.19.
For “MASGILLNVKEEVTCPICLELLTEPLSLHCGHSFCQACITANHKKSMLYKEGERSCPVCRISYQPENIQPNRHVANIVEKLREVKLSPEEGQKVDHCARHGEKLLLFCQEDSKVICWLCERSQEHRGHHTFLMEEVAQEYHVKLQTALEMLRQKQQEAEKLEADIREEKASWKIQIDYDKTNVSADFEQLREILDWEESNELQNLEKEEEDILKSLTKSETEMVQQTQYMRELISELEHRLQGSMMDLLQGVDGIIKRIENMTLKKPKTFHKNQRRVFRAPDLKGMLDMFRELTDARRYWVDVTLAPNNISHAVIAEDKRQVSSRNPQIMYGARGTLFTFPTLTNFNYCTGVLGSQSITSGKHYWEVDVSKKSAWILGVCAGFQSDAMYNIEQNENYQPKYGYWVIGLQEGVKYSVFQDGSSHTPFAPFIVPLSVIICPDRVGVFVDYEACTVSFFNITNHGFLIYKFSQCSFSKPVFPYLNPRKCTVPMTLCSPSS [rhesus TRIM5α, 332-344 = GARGTLFTFPTLT]”, the enrichment worked out at 0.198 ± 0.044.
The figure for “MASGILLNVKEEVTCPICLELLTEPLSLHCGHSFCQACITANHKKSMLYKEGERSCPVCRISYQPENIQPNRHVANIVEKLREVKLSPEEGQKVDHCARHGEKLLLFCQEDSKVICWLCERSQEHRGHHTFLMEEVAQEYHVKLQTALEMLRQKQQEAEKLEADIREEKASWKIQIDYDKTNVSADFEQLREILDWEESNELQNLEKEEEDILKSLTKSETEMVQQTQYMRELISELEHRLQGSMMDLLQGVDGIIKRIENMTLKKPKTFHKNQRRVFRAPDLKGMLDMFRELTDARRYWVDVTLAPNNISHAVIAEDKRQVSSRNPQIMYGARGTLFTFPTLVNFNYCTGVLGSQSITSGKHYWEVDVSKKSAWILGVCAGFQSDAMYNIEQNENYQPKYGYWVIGLQEGVKYSVFQDGSSHTPFAPFIVPLSVIICPDRVGVFVDYEACTVSFFNITNHGFLIYKFSQCSFSKPVFPYLNPRKCTVPMTLCSPSS [rhesus TRIM5α, 332-344 = GARGTLFTFPTLV]” is 1.74 ± 1.1.
In the case of “MASGILLNVKEEVTCPICLELLTEPLSLHCGHSFCQACITANHKKSMLYKEGERSCPVCRISYQPENIQPNRHVANIVEKLREVKLSPEEGQKVDHCARHGEKLLLFCQEDSKVICWLCERSQEHRGHHTFLMEEVAQEYHVKLQTALEMLRQKQQEAEKLEADIREEKASWKIQIDYDKTNVSADFEQLREILDWEESNELQNLEKEEEDILKSLTKSETEMVQQTQYMRELISELEHRLQGSMMDLLQGVDGIIKRIENMTLKKPKTFHKNQRRVFRAPDLKGMLDMFRELTDARRYWVDVTLAPNNISHAVIAEDKRQVSSRNPQIMYGARGTLFTFQSFTNFNYCTGVLGSQSITSGKHYWEVDVSKKSAWILGVCAGFQSDAMYNIEQNENYQPKYGYWVIGLQEGVKYSVFQDGSSHTPFAPFIVPLSVIICPDRVGVFVDYEACTVSFFNITNHGFLIYKFSQCSFSKPVFPYLNPRKCTVPMTLCSPSS [rhesus TRIM5α, 332-344 = GARGTLFTFQSFT]”, the enrichment is 1.11 ± 0.09.

The record behind these values is the supplement of paper PMC12230231.
